Source: article PMC8201891 (Journal of Nanobiotechnology, 2021)

Columns and labels:
[1] = biological target: the molecule itself; test: transmission electron microscopy + dynamic light scattering; purified protein; TEM at 0.5 mg/mL, stained with 4% uranyl acetate; DLS at 1 mg/mL, 25 °C
[2] = biological target: T1, His-tagged integrin α2β1 protein (ACROBiosystems); test: BLI; Octet RED96; His-tagged integrin α2β1 loaded on Anti-Penta-HIS tips from a 10 nM solution; 2D-HFn or HFn 0.2 to 5 μM in solution; binding buffer with 2 mM Mg2+; room temperature, 1000 rpm; association 720 s, dissociation 300 s; 1:1 model; conditions: both partners purified
T1 construct: Integrin alpha-2; recombinant, bought; Integrin beta-1; No catalogue number is printed; source: bought: ACROBiosystems

B1: Human H-ferritin (HFn) (natural protein)
chain: not shown
notes: The reverse primer carries the stop codon, so no C-terminal tag; the number was not measured here; also called naïve HFn; H subunit of ferritin; source: E. coli BL21 (DE3), purified (80 °C heat step, ammonium sulfate precipitation, Sephacryl S-300 HR size exclusion); copies: 24
In the case of B1, the binding result [1] is reported as “binds” and the Kd [2] is reported as 36.3 µM.
